The source of these data is PubChem BioAssay AID463173 (ICCB-Longwood Screening Facility, Harvard Medical School, 2010).

The structures appear in SMILES notation. Screen size: about 52,000 compounds; about 1,700 (3.3%) were called active. Cut-off read from the data, not from the text of the source: active = survival mostly below about 52% (no sharp cut-off); inactive = mostly above about 56%. The list shows a part of the results.

The subject of this experiment is Wild type. Briefly: growth inhibition of S. aureus wild type versus tarO mutant, primary screen, teichoic acid synthesis inhibitors, RN4220, OD600 (AID 463173). The conditions noted are these: S. aureus RN4220 wild type/DeltatarO growth, OD600, 18 h, hits give low values, screened at 18.75 µg/mL (by protocol).
Regarding `O=C(Cn1nnc(-c2cccnc2)n1)NCC1CCCO1` (stereo not drawn), the survival is inactive: 104%. Regarding `Cc1ccc(NC(=O)Cn2c(=O)n(CCC(C)C)c(=O)c3cccnc32)cc1C`, the survival was inactive: 90%. Turning to `CCC(C(=O)NCCC(C)C)N(C(=O)Cn1nnc(-c2ccc(C)cc2)n1)c1cccc(O)c1` (stereo not drawn), the survival is inactive: 70%. Under `COc1ccccc1N1CCN(C(=O)Cn2c(=O)nc(-c3ccccc3)c3ccccc32)CC1` stands inactive: 74%. Take `CC1CN(C(=O)N2CCC(C(=O)NCc3ccccc3F)CC2)c2cc(Cl)ccc2O1` (stereo not drawn): the survival was inactive: 96%. Turning to `COc1cccc(NC(=O)N(Cc2cc3ccc(C)cc3n3nnnc23)CC2CCCO2)c1` (stereo not drawn), the survival is inactive: 104%. Turning to `CCOc1ccc(NC(=O)C(C)n2c(=O)cc(-c3ccccc3)c3c(C)nn(C)c32)cc1` (stereo not drawn), the survival was inactive: 72%. In the case of `CCOC(=O)c1c(C)[nH]c(C)c1S(=O)(=O)N1CCCC(C(=O)N2CCN(c3cccc(Cl)c3)CC2)C1` (stereo not drawn), the survival was inactive: 89%. For the compound `COc1ccccc1C(=O)Nc1ccc(-c2cc(C(F)(F)F)nn2-c2ccccc2)cc1`, the survival was inactive: 39%.

With `O=C(NCc1ccccc1Cl)c1ccc2c(c1)NC(=O)C(CS(=O)(=O)Cc1ccc(Cl)cc1)N2` (stereo not drawn), the survival was inactive: 72%. For the compound `O=C(Nc1ccc(F)c(F)c1)C(c1ccccc1)N1Cc2ccccc2C1=O` (stereo not drawn), the survival is inactive: 73%.

As to `COc1ccc(CCNC(=O)CN(c2ccccc2)S(=O)(=O)N(C)C)cc1`, the survival is inactive: 72%. For the compound `COc1ccccc1-c1nn(CCC(=O)Nc2ccccc2)c2nc(C)cc(C)c12`, the survival is inactive: 86%. As to `Cc1ccc2nc(-c3ccc(C)s3)c(Nc3ccc4c(c3)OCCO4)n2c1`, the survival is inactive: 83%. For the compound `O=C(CN(c1ccc2c(c1)OCCO2)S(=O)(=O)c1ccccc1)NCc1ccco1`, the survival is inactive: 111%. Take `CCN(CC)CCNC(=O)c1cc2c(-c3cccc(OC)c3)nn(C)c2s1`: the survival is inactive: 121%. Take `O=C(N/N=C1/CSC(=O)N1Cc1cccs1)c1cccs1`: the survival is inactive: 112%.

For the compound `Cc1ccc2[nH]cc(C(c3ccccc3)c3ccc(Cl)s3)c2c1` (stereo not drawn), the survival is inactive: 18%.

Turning to `Cc1nn(C(C)C(=O)NCc2ccco2)c(=O)c2nn(-c3ccccc3)c(C)c12` (stereo not drawn), the survival was inactive: 32%. Turning to `Cc1cccc2sc(N(Cc3cccnc3)C(=O)c3ccco3)nc12`, the survival is inactive: 72%.

For `COc1ccccc1OCC(=O)NCCS(=O)(=O)N1CCN(c2ccccc2OC)CC1`, the survival is inactive: 72%.

With `CCOc1ccccc1NC(=O)Cn1c(=O)n(CCCC(=O)NCc2ccc(C)cc2)c(=O)c2ccccc21`, the survival is inactive: 83%. With `CCOC(=O)C1=C(SCC)c2cc3c(n2C1=O)CCCC3`, the survival was inactive: 106%. `Cc1ccc(C(=O)N2CCN(CCc3ccncc3)CC2)cc1`: the survival was inactive: 88%. In the case of `CN1C(=O)c2ccccc2Sc2ccc(NC(=O)N3CCN(c4ccc(F)cc4)CC3)cc21`, the survival is inactive: 55%. Turning to `COc1ccc(NC(=O)C(NS(=O)(=O)c2cccc3nsnc23)C(C)C)cc1OC` (stereo not drawn), the survival is inactive: 83%. Take `COc1ccc(-c2nc(S(=O)(=O)c3ccccc3)c(N3CCC(C)CC3)o2)cc1`: the survival is inactive: 89%.

For `COc1ccc(S(=O)(=O)Nc2cccc(-c3ccc(N4CCCCC4)nn3)c2)cc1F`, the survival is inactive: 99%. Regarding `O=C(CN1CCN(c2ccccn2)CC1)N(c1ccccc1)c1ccc2ccccc2c1`, the survival is inactive: 110%. On to `CC1(C)Oc2ccc(C(=O)N/N=C/c3cccs3)cc2NC1=O`, for which the survival is inactive: 101%. For `Oc1ccc(NCc2ccccc2OCc2ccccc2)cc1`, the survival was inactive: 100%. On to `CCOc1ccc(CNC(=O)c2cc3cc(S(=O)(=O)N4CCCCC4)ccc3n2C)cc1`, for which the survival was inactive: 85%. With `COC(=O)C1=CN(CCCN2CCCC2=O)C=C(C(=O)OC)C1c1cccs1`, the survival was inactive: 98%.

As for `O=C1CCCc2oc3c(c21)CCCC3`, the survival was inactive: 107%. For the compound `Cc1ccc(Cl)cc1-n1c(SCC(=O)NCc2ccccc2)nc2n[nH]c(C)c2c1=N`, the survival was inactive: 72%. Regarding `CSc1ccc(CCNC(=O)CN2C(=O)COc3ccc(S(=O)(=O)N4CCCCCC4)cc32)cc1`, the survival was inactive: 77%. For `CC(C)N(C(=O)Cn1c(-c2cccnc2)ccc(C#N)c1=O)C(C)C`, the survival was inactive: 115%.

Turning to `COc1ccc(C(=O)NCCc2csc(-c3ccc(Cl)cc3)n2)c(OC)c1`, the survival was inactive: 74%. In the case of `O=C(CN1c2ccc(Br)cc2-c2ccccc2S1(=O)=O)N1CCCCC1` it was inactive: 93%; in that of `CC(=O)Nc1c(C)nn(-c2ccccc2)c1N1CCC(C(=O)Nc2ccccc2C(F)(F)F)CC1`, inactive: 82%; in that of `Cc1ccc(NC(=O)N2CCN(Cc3nc4ccc(C)cc4o3)CC2)cc1`, inactive: 119%. Under `COc1cccc(Nc2nc3c(S(=O)(=O)c4cc(C)ccc4C)nnn3c3ccsc23)c1` stands inactive: 92%; under `Cc1cc(C)c(NC(=O)CSC2=Nc3ccccc3C3=NC(CC(=O)NCc4cccs4)C(=O)N23)c(C)c1` (stereo not drawn), inactive: 76%.

For the compound `CCN1CCc2nc3sc(C(=O)Nc4ccccc4OC(F)(F)F)c(N)c3cc2C1`, the survival was inactive: 95%. For the compound `CCOC(=O)N1CCN(S(=O)(=O)N2CCCC(C(=O)NCc3cc(Br)ccc3OC)C2)CC1` (stereo not drawn), the survival is inactive: 76%.

With `Cc1cc(=O)c2cc(C(=O)Nc3ccc(F)cc3)ccc2[nH]1`, the survival is inactive: 87%.

As for `CCOc1ccc(Nc2oc(/C=C/c3ccc(OC)c(OC)c3)nc2C#N)cc1`, the survival was inactive: 89%. As to `Cc1cccn2c(=O)c(C(=O)NC(C)c3ccccc3)c(O)nc12` (stereo not drawn), the survival was inactive: 63%.

On to `COc1ccc(C)cc1-n1nnc(S(=O)(=O)c2ccc(C)cc2)c1C`, for which the survival is inactive: 70%. Turning to `COc1ccc2c(C)c(CCC(=O)NCc3ccccc3OC)c(=O)oc2c1`, the survival is inactive: 83%.

Turning to `O=C(Cn1c(-c2cccs2)cc2cc(F)ccc21)N1CCN(c2ccccc2)CC1`, the survival was inactive: 68%. In the case of `COc1ccc(CNc2oc(/C=C/c3cc(OC)c(OC)c(OC)c3)nc2C#N)cc1`, the survival was inactive: 89%. Under `COCCn1c(SCC(=O)NCc2ccco2)nnc1-c1cccs1` stands inactive: 109%. Under `CCN(CC)S(=O)(=O)c1ccc(C(=O)NC2CC(=O)N(c3ccc(OC)c(OC)c3)C2)cc1` (stereo not drawn) stands inactive: 84%; under `O=C(c1ccccc1Cl)N1CCC(c2nc3ccccc3s2)CC1`, inactive: 87%; under `CCOCCCNC(=O)C(=O)Nc1c2c(nn1-c1ccccc1)CSC2`, inactive: 81%. Regarding `O=C(COc1ccc(Cl)cc1)NCC(c1ccco1)S(=O)(=O)c1ccc(F)cc1` (stereo not drawn), the survival is inactive: 76%. In the case of `CC(=O)c1ccc(NC(=O)c2cc3sccc3n2Cc2ccc(Cl)cc2)cc1`, the survival is inactive: 93%.

On to `Cc1ccc(N(CC(=O)NCCSc2ccccc2)S(=O)(=O)c2ccc(F)cc2)cc1`, for which the survival was inactive: 107%.

With `COCCCn1c(=O)c2sccc2n2c(CCCC(=O)Nc3cccc(OC)c3)nnc12`, the survival was inactive: 101%. As to `COc1ccc(CNC(=O)c2cc3cccc4c3n2CC(C)S4)cc1OC` (stereo not drawn), the survival is inactive: 72%. With `Cc1ccc(CNS(=O)(=O)c2ccc3[nH]c4c(c3c2)CCCCC4)cc1`, the survival is inactive: 84%. Take `Cc1nnc(SCC(=O)O)n1N`: the survival is inactive: 112%. For `COc1ccc(Cl)cc1NC(=O)Cn1nc(C(F)(F)F)c2c1CCCC2`, the survival was active: 9%. For `Cc1cccc(NC(=O)C2CCCN(S(=O)(=O)c3ccc4c(c3)CCCC(=O)N4)C2)c1` (stereo not drawn), the survival was inactive: 78%.

For `COCCCn1c(SCC(=O)Nc2ccc(F)cc2)nc2c(sc3ccccc32)c1=O`, the survival was inactive: 72%. Turning to `Cc1ccc(Cl)cc1-n1ncc2c(Nc3ccc4c(c3)OCCO4)ncnc21`, the survival was inactive: 99%. In the case of `O=C(c1ccc2c(c1)N(Cc1c(F)cccc1Cl)C(=O)c1ccccc1S2)N1CCCC1` it was inactive: 101%; in that of `CCc1ccc(NC(=O)c2ccc(Cn3nc(N4CCN(c5ccccc5)CC4)ccc3=O)o2)cc1`, inactive: 72%; in that of `COc1cc(NC(=O)CN2C(=O)COc3ccc(S(=O)(=O)NC4CCCC4)cc32)cc(OC)c1`, inactive: 135%.

For `CCOc1cc(S(=O)(=O)NCCc2ccc(OC)c(OC)c2)c(OCC)cc1-n1cnnn1`, the survival was inactive: 105%. Consider `CC(=O)N1CCCC1c1nc2ccccc2n1Cc1ccc(F)cc1` (stereo not drawn), for which the survival is inactive: 86%. For `COc1ccc(-c2cc3ncc(C(=O)c4cc([N+](=O)[O-])ccc4O)cn3n2)cc1`, the survival was inactive: 58%.

Consider `O=C(Nc1cccc2cccnc12)c1ccc(-c2cccc(Cl)c2)o1`, for which the survival is active: 0%. As for `CCC(C)c1ccccc1OCC(=O)Nc1ccc(S(=O)(=O)Nc2cc(C)on2)cc1` (stereo not drawn), the survival is inactive: 68%. On to `COc1cc(NS(=O)(=O)c2c(C(=O)N3CCCCC3)c(C)n(C)c2C)cc(OC)c1OC`, for which the survival is inactive: 81%. Take `CC1CCc2c(sc3nnn(CC(=O)Nc4c(C(C)C)cccc4C(C)C)c(=O)c23)C1` (stereo not drawn): the survival is inactive: 62%. Turning to `CCCn1c2ccccc2c2cnn(CC(=O)NCCCN(CC)c3ccccc3)c(=O)c21`, the survival is inactive: 72%.

Consider `O=C(Nc1sc2c(c1C(=O)NCC1CCCO1)CCC2)c1cc(=O)c2cc(Cl)ccc2o1` (stereo not drawn), for which the survival was inactive: 80%. In the case of `CCOC(=O)c1cc(-c2ccccc2)n(CC(=O)Nc2ccccc2OCC)c1C` it was inactive: 88%; in that of `Cn1nnnc1SCCCNCc1cc(Br)ccc1OCc1ccccc1F`, inactive: 82%; in that of `Cc1ccc(CCNC(=O)c2ccc3c(c2)N(Cc2ccccc2F)C(=O)c2ccccc2S3=O)cc1` (stereo not drawn), inactive: 90%. For `COc1cccc(NC(=O)CCCn2c(=O)c3cccn3c3cccnc32)c1`, the survival was inactive: 85%. As for `CC(=O)Nc1ccc(S(=O)(=O)N2CCN(C(=O)N3CCCC3)CC2)cc1`, the survival is inactive: 101%. On to `Fc1ccc(-c2csc(=Nc3cccc(C(F)(F)F)c3)n2Cc2ccc3c(c2)OCO3)cc1`, for which the survival was inactive: 81%. On to `CCOC(=O)c1c(S(=O)(=O)NCC(=O)Nc2ccc(C(C)=O)cc2)c(C)n(C)c1C`, for which the survival is inactive: 89%. Turning to `O=C1C(=O)N(C2CCNCC2)CCN1Cc1ccccc1`, the survival is inactive: 81%. Regarding `Fc1ccc(-c2cc(-c3ccccc3)c3c(n2)-c2ccccc2OC3)cc1`, the survival was inactive: 61%.
